PubChem BioAssay AID720709 (National Center for Advancing Translational Sciences (NCATS), 2013)
Several values for one entry are separate records, joined by “and”; a condition that tells them apart may be missing. Equal entries are not always repeated. The campaign covered roughly 360,000 compounds. About 520 (0.14%) were called active. The shares of active, inactive and inconclusive entries below differ from those in the screen. Calls come from the whole dose curve; as a rule, active = well fitted inhibition curve with a large enough effect; inconclusive = small, poorly fitted or top-dose-only effect; inactive = no such curve, though single readings can be large or run the other way. A potency beside an inconclusive call is a rough fit, not a confirmed value.

target: Rap guanine nucleotide exchange factor 3 (Homo sapiens) (UniProt O95398); experiment: qHTS for Antagonist of cAMP-regulated guanine nucleotide exchange factor 3 (EPAC1): primary screen; conditions: EPAC1 GEF assay, Rap1b-BODIPY-GDP exchange fluorescence; activity change, negative = inhibition: at 115 µM (top of the series); note: nearly all actives have a fitted effect of over 50% in size;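 for activity change, negative = inhibition: plate controls were vehicle for no effect and positive control for full effect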
Sequence of UniProt O95398 (O95398 whole entry, looked up): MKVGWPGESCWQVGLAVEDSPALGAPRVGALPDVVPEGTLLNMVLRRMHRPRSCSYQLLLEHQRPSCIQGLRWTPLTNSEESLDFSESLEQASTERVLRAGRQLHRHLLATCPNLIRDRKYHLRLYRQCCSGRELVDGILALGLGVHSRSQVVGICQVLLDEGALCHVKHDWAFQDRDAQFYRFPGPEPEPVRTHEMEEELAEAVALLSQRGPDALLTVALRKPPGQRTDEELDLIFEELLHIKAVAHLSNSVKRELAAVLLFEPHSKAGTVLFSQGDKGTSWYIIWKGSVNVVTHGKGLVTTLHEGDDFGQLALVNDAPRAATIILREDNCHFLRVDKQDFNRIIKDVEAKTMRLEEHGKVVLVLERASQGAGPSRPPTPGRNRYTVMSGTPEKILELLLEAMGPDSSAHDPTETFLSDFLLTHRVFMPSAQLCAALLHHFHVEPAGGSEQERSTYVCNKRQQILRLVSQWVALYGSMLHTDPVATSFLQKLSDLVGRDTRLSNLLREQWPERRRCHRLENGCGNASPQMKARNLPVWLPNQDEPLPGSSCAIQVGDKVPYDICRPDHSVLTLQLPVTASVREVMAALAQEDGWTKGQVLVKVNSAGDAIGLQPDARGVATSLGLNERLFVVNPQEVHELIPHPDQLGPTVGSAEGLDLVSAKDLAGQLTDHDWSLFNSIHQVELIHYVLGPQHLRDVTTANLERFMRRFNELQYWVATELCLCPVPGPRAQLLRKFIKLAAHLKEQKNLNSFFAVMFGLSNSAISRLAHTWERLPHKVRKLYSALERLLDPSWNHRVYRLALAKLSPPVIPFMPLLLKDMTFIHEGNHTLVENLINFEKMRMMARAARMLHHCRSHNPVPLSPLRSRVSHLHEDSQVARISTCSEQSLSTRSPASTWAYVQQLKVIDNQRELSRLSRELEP
Potency is the fitted concentration of half-maximal effect; tags give direction and shape of the fitted curve.

Row | Compound | Potency | activity change, negative = inhibition
1 | CCN(CC)C(=O)c1ccc(NC(=O)CN2CCc3cc(OC)c(OC)cc3C2)cc1 | inconclusive: 79.4 µM [inhibitor, partial curve] | –
2 | CC(=O)C1C2c3ccccc3O[C@@]1(C)N=c1s/c(=C/c3ccoc3)c(=O)n12 (stereo partly specified) | inconclusive: 100 µM [inhibitor, single point] | –
3 | CC1(C)C[C@H]2C=C(C=O)[C@]3(C=O)C[C@]3(C)[C@H]2C1 | – | inactive: -27.1%
4 | CCCNC(=O)C1(C)CCN(Cc2ccc3ccccc3c2Br)C1 (stereo unspecified) | inconclusive: 8.91 µM [inhibitor, full curve, poor fit] | –
5 | CN1CCN(c2ccc([N+](=O)[O-])c3no[n+]([O-])c23)CC1 | inconclusive: 56.2 µM [inhibitor, partial curve] | –
6 | CN1C(=O)C(Cc2ccccc2)C(=O)N(C)C1=O | – | inactive: 5.85%
7 | NCCc1cc(O)c(O)cc1O | inconclusive: 7.94 µM [inhibitor, full curve, poor fit] and inconclusive: 35.5 µM [inhibitor, partial curve, poor fit] | –
8 | Cc1cc(C)cc(N2C(=O)/C(=C\c3ccc(N4CCN(C)CC4)o3)C(=O)NC2=S)c1 | – | inactive: 23.9%
9 | NC(=S)/N=C/c1c(O)[nH]c(=O)[nH]c1=O | inconclusive: 50.1 µM [inhibitor, partial curve] | –
10 | O=C1NC(=O)N(c2ccc(Cl)cc2)C(=O)/C1=C\c1ccc(Sc2nc3ccccc3[nH]2)o1 | inconclusive: 50.1 µM [inhibitor, partial curve, poor fit] | –
11 | O=P(Nc1cccc(F)c1)(Oc1ccccc1F)Oc1ccccc1F | inconclusive: 112 µM [inhibitor, partial curve, poor fit] | –
12 | O=[N+]([O-])c1ccc(N2CCCCC2)c2ncccc12 | – | inactive: -27.3%
13 | O=C1NC(=O)C(=Cc2ccc(-c3cc(Cl)ccc3[N+](=O)[O-])o2)C(=O)N1 | inconclusive: 28.2 µM [inhibitor, partial curve] | –
14 | COc1ccc(-c2ccc3c(c2)CN(C(=O)C(C)(C)C)Cc2cnnn2-3)cc1 | inconclusive: 28.2 µM [inhibitor, full curve] | –
15 | O=C(O)COc1ccc(Br)cc1C(c1c(C(=O)O)[nH]c2ccccc12)c1c(C(=O)O)[nH]c2ccccc12 | inconclusive: 25.1 µM [inhibitor, partial curve] | –
16 | CC(=O)N1CC(=O)Nc2ccc(Br)cc2C1c1ccc(F)cc1 (stereo unspecified) | inconclusive: 100 µM [inhibitor, single point] | –
17 | OCCNc1c2c(nc3ccccc13)CCCC2 | – | inactive: 7.88%
18 | C[C@]12CC[C@H](OS(=O)(=O)O)CC1=CC[C@@H]1[C@@H]2CC[C@]2(C)C(=O)CC[C@@H]12 | inconclusive: 39.8 µM [inhibitor, full curve, poor fit] and inconclusive: 63.1 µM [inhibitor, partial curve, poor fit] | –
19 | CN1C(=O)N(C)C(=O)C2(Sc3ccccc3C2=O)C1=O | – | inactive: -13.4%
20 | N#CC1C(C#N)C2CCC1C1C2N1c1ccccc1 (stereo unspecified) | inconclusive: 89.1 µM [inhibitor, single point] | –
21 | CCCC1(CC(C)C)C(=O)NC(=S)NC1=O | inconclusive: 25.1 µM [inhibitor, single point] | –
22 | Oc1c(Cl)cccc1Cc1cc(Cl)cc(Cl)c1O | active: 79.4 µM | –

Row | Compound | Potency | activity change, negative = inhibition
23 | O=C(NCCCN1CCOCC1)C(Cl)(Cl)Cl | inconclusive: 31.6 µM [inhibitor, single point] | –
24 | Cn1cc(/C=C2\C(=O)NC(=O)N(c3ccccc3)C2=O)c2ccccc21 | – | inactive: -8.95%
25 | O=C1NC(=O)N(Cc2ccc(F)cc2)C(=O)/C1=C\c1ccc([N+](=O)[O-])s1 | active: 20 µM | –
26 | O=[N+]([O-])c1ccc(N(CCO)CCO)c2c1no[n+]2[O-] | active: 56.2 µM | –
27 | CCOC(=O)c1c(NS(=O)(=O)c2ccccc2)n(CCCOC)c2nc3ccccc3nc12 | active: 7.94 µM | –
28 | Cc1ccc(N2C(=O)NC(=O)/C(=C/c3ccc(OC(=O)c4cccs4)cc3)C2=O)cc1 | – | inactive: 1.78%
29 | COC(=O)C1=CO[C@@H](OC2OC(CO)C(O)C(O)C2O)[C@@H]2C(CO)=CC[C@H]12 (stereo partly specified) | inconclusive: 31.6 µM [inhibitor, single point] | –
30 | Cc1ccc(OCC(=O)N2CCN(Cc3ccc4c(c3)OCO4)CC2)cc1 | inconclusive: 89.1 µM [inhibitor, single point] | –
31 | CCc1ccc(N2C(=O)NC(=O)/C(=C\c3cc(C)n(-c4cc(C(=O)O)cc(C(=O)O)c4)c3C)C2=O)cc1 | inconclusive: 3.16 µM [inhibitor, full curve, poor fit] | –
32 | Nc1c(Br)cc2c3c(cccc13)-c1ccccc1-2 | inconclusive: 39.8 µM [inhibitor, full curve, poor fit] | –
33 | O=C(NN=Cc1ccc(N(CCCl)CCCl)cc1)c1cccnc1 | inconclusive: 89.1 µM [inhibitor, single point] | –
34 | O=C1NC(=O)C(Nc2ccccc2)C(=O)N1 | – | inactive: -29.5%
35 | O=C(c1ccc(Cl)cc1)C1CCCN(Cc2cccc3cccnc23)C1 (stereo unspecified) | inconclusive: 89.1 µM [inhibitor, single point] | –
36 | COc1cccc(CN2CCN(C(=O)Cc3ccccc3OC)CC2)c1 | inconclusive: 2.82 µM [inhibitor, full curve, poor fit] | –
37 | CCC[N+]12CCC(CC1)C(=C(c1ccccc1)c1ccccc1)C2 | – | inactive: -14%
38 | Cc1ccccc1C(=O)Oc1cccc(Nc2ncnc3ccccc23)c1 | inconclusive: 79.4 µM [inhibitor, single point] | –
39 | O=C(c1cc(Cl)cc(Cl)c1)N1Cc2ccccc2-n2nncc2C1 | inconclusive: 100 µM [inhibitor, single point] | –
40 | CC(C)C1(C)N=C(c2nc3ccccc3cc2C(=O)O)NC1=O (stereo unspecified) | – | inconclusive: -18.3% [inhibitor]
41 | Cc1cc(/C=C2\C(=O)NC(=O)N(Cc3ccco3)C2=O)c(C)n1-c1ccc(O)cc1 | inconclusive: 70.8 µM [inhibitor, partial curve] | –
42 | COc1ccc(N2C(=O)/C(=C/c3ccc(C)o3)C(=O)NC2=S)cc1 | inconclusive: 79.4 µM [inhibitor, single point] | –
43 | CCCn1ncc(CN2CCCC(C(=O)c3cccc(OC)c3)C2)c1C (stereo unspecified) | – | inactive: 9.1%
44 | C[n+]1c2ccccc2nc2ccc(NCCO)cc21 | inconclusive: 79.4 µM [inhibitor, partial curve] | –

Row | Compound | Potency | activity change, negative = inhibition
45 | COc1cc(/C=C/c2nc3ccccc3c(=O)n2-c2ccccc2O)ccc1O | inconclusive: 39.8 µM [inhibitor, partial curve] | –
46 | CC(C)(C)OC(=O)NNC(=S)NC1CCCCC1 | inconclusive: 100 µM [inhibitor, single point] | –
47 | O=C(O)CC1OCC=C2CN3CCC45C6=CC(=O)C(=O)C([N+](=O)[O-])=C6NC4C1C2CC35 (stereo unspecified) | inconclusive: 8.91 µM [inhibitor, full curve] | –
48 | COc1ccc(N2C(=O)NC(=O)/C(=C/c3ccc([N+](=O)[O-])s3)C2=O)cc1 | inconclusive: 10 µM [inhibitor, full curve] | –
49 | CC(OC(=O)c1cn(C)c2ccccc12)C(=O)N(C)c1ccccc1 (stereo unspecified) | inconclusive: 100 µM [inhibitor, single point] | –
50 | O=C1NC(=O)N(CCc2ccc(F)cc2)C(=O)/C1=C/c1ccco1 | inconclusive: 44.7 µM [inhibitor, partial curve, poor fit] | –
51 | Cn1ncnc2c(=O)n(C)c(=O)nc1-2 | inconclusive: 20 µM [inhibitor, full curve] | –
52 | Nc1ccc2c3c(cccc13)-c1ccccc1-2 | – | inactive: 50.7%
53 | CC(C)(C)N1C(=O)NC(=O)/C(=C\c2ccc3c(c2)CCN3CCCCl)C1=O | inconclusive: 15.8 µM [inhibitor, partial curve] | –
54 | Cc1ccc(OCCOc2cccc(C=C3C(=O)NC(=O)NC3=O)c2)c(C)c1 | – | inactive: -14.2%
55 | FC(F)(F)c1cccc(-n2nnnc2C2(N3CCOCC3)CCCCC2)c1 | – | inconclusive: -15.3% [inhibitor]
56 | CC(C)c1ccc(-n2c(O)c(/C=N/NC(=O)c3ccccc3O)c(=O)[nH]c2=S)cc1 | inconclusive: 79.4 µM [inhibitor, partial curve] | –
57 | CC(C)N1C(=O)/C(=C/C=C/c2ccco2)C(=O)N(Cc2ccco2)C1=O | inconclusive: 50.1 µM [inhibitor, partial curve] | –
58 | CNS(=O)(=O)c1ccc(N=Cc2c(O)n(-c3ccc(C)cc3)c(=O)[nH]c2=O)cc1 | inconclusive: 22.4 µM [inhibitor, single point] | –
59 | CCOC(=O)[C@]12Cc3cc(OC)ccc3[C@H]1N(C1CCCCC1)C(=O)c1ccccc12 | – | inactive: -15.2%
60 | COc1ccc(-n2c(O)c(/C=C3\C=Nc4ccc(Br)cc43)c(=O)[nH]c2=O)c(OC)c1 | inconclusive: 28.2 µM [inhibitor, full curve, poor fit] | –
61 | O=Cc1cn(Cc2ccccc2[N+](=O)[O-])c2ccccc12 | inconclusive: 100 µM [inhibitor, single point] | –
62 | O=c1c2ccccc2nc(/C=C/c2cccnc2)n1Cc1ccccc1 | inconclusive: 25.1 µM [inhibitor, full curve] | –
63 | Cc1ccccc1N1C(=O)NC(=O)/C(=C\c2ccc3c(c2)CCCN3Cc2ccccc2)C1=O | active: 35.5 µM | –
64 | O=c1oc(Cl)c(Cl)c2ccccc12 | inconclusive: 89.1 µM [inhibitor, single point] | –
65 | O=C1NC(=S)NC(=O)C1=Cc1ccc2c(c1)CCN2CCCCl | – | inactive: -26.2%
66 | CCOc1cc(/C=C2/C(=O)NC(=O)N(c3ccc(CC)cc3)C2=O)ccc1OC(=O)c1cccs1 | inconclusive: 50.1 µM [inhibitor, partial curve] | –
